{"source": "PubChem BioAssay AID588855", "about": "(National Center for Advancing Translational Sciences (NCATS), 2011)", "note": "Screen size: about 410,000 compounds; about 5,000 (1.2%) were called active. This list was built around the results that the source calls inconclusive (neither active nor inactive); the mix of calls is not that of the screen. Calls follow the shape of the dose curve; as a rule, active = well fitted inhibition curve with a large enough effect; inconclusive = small, poorly fitted or top-dose-only effect; inactive = no such curve, though single readings can be large or run the other way. A potency beside an inconclusive call is a rough fit, not a confirmed value.", "data": [{"assay": "qHTS for Inhibitors of TGF-b; also: nearly all actives have a fitted effect of over 65% in size; also: potency is read from the fitted curve at half-maximal effect; tags tell the direction and shape of the fitted curve", "conditions": "HepG2 CAGA-GFP TGF-b/SMAD3 reporter, GFP fluorescence, 18 h, TGF-beta stimulated, 500 pg/mL final; series mostly up to 46.1 µM", "summary_of_the_method": "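GFP signal (ex488/em500-530) from TGF-beta-stimulated HEPG2 CAGA-GFP cells, 500 pg/mL final, 18 h at 37 degrees C in DMEM plus 1% FBS, normalized to unstimulated and DMSO-stimulated controls.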", "values": [{"molecule": "CCC(=O)Nc1cccc(C2=NOC3(C2)C[C@H](C(N)=O)N(C(=O)CC#N)C3)c1", "note": "(some centres not stated)", "Potency": "inconclusive: 0.562 µM [inhibitor, full curve, poor fit]"}, {"molecule": "COC(=O)/C(=C/c1cccnc1)NC(=O)c1ccccc1", "Potency": "inconclusive: 35.5 µM [inhibitor, single point]"}, {"molecule": "O=C(Nc1ccccc1C(=O)N1CCOCC1)C1CC(=O)N(C2CCCC2)C1", "note": "(configuration not stated)", "Potency": "inconclusive: 25.1 µM [inhibitor, single point]"}, {"molecule": "COc1ccccc1N1CCN(CCCNC(=O)c2cnn(-c3ccccc3)c2C2CCN(C(=O)OC(C)(C)C)CC2)CC1", "Potency": "inconclusive: 22.4 µM [inhibitor, partial curve, poor fit]"}, {"molecule": "Cc1cccc(CCNC(=O)Cn2ncc3c([nH]c4ccc(C)cc43)c2=O)c1", "Potency": "inconclusive: 35.5 µM [inhibitor, single point]"}, {"molecule": "CCOC(=O)c1c(CN2CCOCC2)n(-c2ccccc2)c2cc(Br)c(O)c(CN(C)C)c12", "Potency": "inconclusive: 35.5 µM [inhibitor, single point]"}, {"molecule": "O=C1CSC(=S)N1N=Cc1c(O)ccc2ccccc12", "Potency": "inconclusive: 8.91 µM [inhibitor, partial curve, poor fit]"}, {"molecule": "Cc1cc(C(=O)NNC(=O)/C=C/c2ccco2)c(C)o1", "Potency": "inactive"}, {"molecule": "Cc1sc2ncnc(SCC(=O)NCC3CCCO3)c2c1C", "note": "(configuration not stated)", "Potency": "inactive"}, {"molecule": "C/C=C/C(=O)N1c2ccccc2C(C)=CC1(C)C", "Potency": "inconclusive: 3.16 µM [inhibitor, single point]"}, {"molecule": "CC(C)NC(=O)c1cc(-c2ccco2)on1", "Potency": "inconclusive: 35.5 µM [inhibitor, single point]"}, {"molecule": "O=C(CCS(=O)(=O)c1cc(Br)cc2c1N(C(=O)C1CC1)CC2)N1CCN(c2ccccn2)CC1", "Potency": "inconclusive: 35.5 µM [inhibitor, single point]"}, {"molecule": "O=S(=O)(N(Cc1ccccc1)[C@@H](CO)Cc1ccccc1)N(Cc1ccccc1)[C@@H](CO)Cc1ccccc1", "Potency": "inconclusive: 11.2 µM [inhibitor, partial curve]"}, {"molecule": "Cc1ccccc1C(=O)Nc1nc(-c2nnn(-c3ccc(C(C)C)cc3)c2C)ns1", "Potency": "inconclusive: 14.1 µM [inhibitor, single point]"}, {"molecule": "Cc1cc(NC(=O)CCC(=O)N(Cc2ccco2)C2(C(=O)NC3CCCC3)CCCCC2)no1", "Potency": "inconclusive: 35.5 µM [inhibitor, single point]"}, {"molecule": "CSc1ncnc2c1ncn2CCCNCCc1ccccn1", "Potency": "inactive"}, {"molecule": "O=C(Nc1ccc(F)c(Cl)c1)c1cccnc1", "Potency": "inactive"}, {"molecule": "Cc1cccc(C)c1OCC(=O)NNC(=O)CNC(=O)c1ccc(OC(F)F)cc1", "Potency": "inconclusive: 35.5 µM [inhibitor, single point]"}, {"molecule": "COc1ccc2nc(C)cc(N/N=C/c3cccc(OC)c3O)c2c1", "Potency": "inconclusive: 35.5 µM [inhibitor, single point]"}, {"molecule": "COc1ccc2cc(C3CC(c4ccco4)=NN3S(C)(=O)=O)c(Cl)nc2c1", "note": "(configuration not stated)", "Potency": "inactive"}, {"molecule": "COc1ccccc1N1CCN(C(=O)CCC(=O)N2CCN(c3ccc(F)cc3)CC2)CC1", "Potency": "inconclusive: 7.08 µM [inhibitor, partial curve, poor fit]"}, {"molecule": "CCOC(=O)c1c(C)[nH]c(C)c1S(=O)(=O)N1CCCC(C(=O)N2CCN(c3ccccc3)CC2)C1", "note": "(configuration not stated)", "Potency": "inactive"}, {"molecule": "COc1cc(C(=O)N/N=C(\\C)c2ccccn2)cc(OC)c1OC", "Potency": "active: 1.26 µM"}, {"molecule": "CCCCNc1nc(Nc2ccc(C)c(Cl)c2)c2cnn(C)c2n1", "Potency": "inconclusive: 35.5 µM [inhibitor, single point]"}, {"molecule": "Cc1cc(C)nc(SSc2nc(C)cc(C)n2)n1", "Potency": "inconclusive: 35.5 µM [inhibitor, single point]"}, {"molecule": "COc1ccc(CNC(=O)CSc2nnc(-c3cccnc3)n2N)cc1", "Potency": "inconclusive: 17.8 µM [inhibitor, single point]"}, {"molecule": "CC1(C(=O)NS(=O)(=O)C2CC2)CCCN(C(=O)c2cccs2)C1", "note": "(configuration not stated)", "Potency": "inactive"}, {"molecule": "Cc1nn(-c2ccccc2)c(C)c1/C=N/NC(=O)c1cc(-c2ccccc2)n[nH]1", "Potency": "inconclusive: 2.82 µM [inhibitor, full curve, poor fit]"}, {"molecule": "COCCNc1nc(NCc2ccc(NC(C)=O)cc2)c2sc(-c3ccccc3)cc2n1", "Potency": "inconclusive: 11.2 µM [inhibitor, partial curve, poor fit]"}, {"molecule": "O=C1/C(=C/c2ccccc2[N+](=O)[O-])COc2ccccc21", "Potency": "active: 7.94 µM"}, {"molecule": "Cc1ccccc1-c1cnc(C(O)c2ccccc2)[nH]1", "note": "(configuration not stated)", "Potency": "inactive"}, {"molecule": "CN(C)CCC1Sc2ccccc2Oc2ccccc21", "note": "(configuration not stated)", "Potency": "inactive"}, {"molecule": "COCCCNc1oc(-c2ccc(COc3ccc(Cl)cc3)o2)nc1C#N", "Potency": "inconclusive: 5.62 µM [inhibitor, full curve]"}, {"molecule": "CC#Cc1cc2c(cc1O)CCC1C2CCC2(C)C(O)CCC12", "note": "(configuration not stated)", "Potency": "inconclusive: 35.5 µM [inhibitor, single point]"}, {"molecule": "CCCCCNC(=O)CCCCCn1c(=O)[nH]c2ccsc2c1=O", "Potency": "inconclusive: 20 µM [inhibitor, single point]"}, {"molecule": "Cc1cc(C(=O)N(Cc2nnc(-c3ccc(Cl)cc3)o2)C(C)C)c2ccccc2n1", "Potency": "inconclusive: 15.8 µM [inhibitor, single point]"}, {"molecule": "O=c1oc2c(CN3CCN(CCO)CC3)c(O)ccc2cc1-c1ccccc1", "Potency": "inactive"}, {"molecule": "COc1ccc(Cn2ccc3nc(C)c(C(=O)NCc4ccc(F)cc4)cc3c2=O)cc1", "Potency": "inconclusive: 35.5 µM [inhibitor, single point]"}, {"molecule": "CCSC1=N/C(=C\\c2ccc(C)s2)C(=O)S1", "Potency": "inconclusive: 35.5 µM [inhibitor, single point]"}, {"molecule": "COc1ccc(C2N(C(=O)N(C)C)CCN2S(=O)(=O)c2ccc(OC)cc2)cc1", "note": "(configuration not stated)", "Potency": "inactive"}, {"molecule": "COc1ccc(/C=C2/Sc3ccc(C(=O)NCCCN4CCOCC4)cc3NC2=O)cc1OC", "Potency": "active: 14.1 µM"}, {"molecule": "O=C(O)c1cccc2c1Cc1cc(Cl)ccc1-2", "Potency": "inactive"}, {"molecule": "O=C1CCC(C(=O)N2CCN(c3cnccn3)CC2)CN1CCc1cccc(F)c1", "note": "(configuration not stated)", "Potency": "inactive"}, {"molecule": "O=C(NCCC1=CCCCC1)C(=O)NCC(c1ccco1)N1CCN(c2ccc(F)cc2)CC1", "note": "(configuration not stated)", "Potency": "inactive"}, {"molecule": "O=C(Cc1ccccc1)Nc1nc(-c2cccs2)cs1", "Potency": "inactive"}, {"molecule": "C=C(C)CNC(=S)NNC(=O)CCn1c2ccc(Cl)cc2c2cc(Cl)ccc21", "Potency": "inconclusive: 35.5 µM [inhibitor, single point]"}, {"molecule": "CCc1nn(Cc2ccc(Cl)cc2)c(=O)c2cc3cc(C)ccc3n12", "Potency": "inconclusive: 8.91 µM [inhibitor, partial curve, poor fit]"}, {"molecule": "COc1cccc(NC(=O)c2ccc(NCCCN3CCC(C)CC3)c([N+](=O)[O-])c2)c1", "Potency": "inactive"}, {"molecule": "COc1ccc(C(=O)Nc2ccc(S(=O)(=O)N3CCc4ccccc43)cc2)cc1", "Potency": "inconclusive: 12.6 µM [inhibitor, single point]"}, {"molecule": "CCCc1cc(C(=O)Nc2ccc(C)cc2)no1", "Potency": "inactive"}, {"molecule": "c1ccc2c(Nc3ccc(N4CCOCC4)cc3)nc(N3CCOCC3)nc2c1", "Potency": "inactive"}, {"molecule": "Cn1nnnc1Sc1ncnc2scc(-c3ccc4c(c3)OCO4)c12", "Potency": "inconclusive: 22.4 µM [inhibitor, single point]"}, {"molecule": "Cn1c(CN2CCOCC2)nnc1SCC(=O)Nc1cccc(C(F)(F)F)c1", "Potency": "inactive"}, {"molecule": "CCOC(=O)c1c(CN2CCC(C)CC2)n(C)c2cc(Br)c(OC)cc12", "Potency": "inactive"}, {"molecule": "Cc1ccc2sc(NC(=O)c3ccc4c(c3)OCCO4)nc2c1C", "Potency": "inconclusive: 11.2 µM [inhibitor, partial curve, poor fit]"}, {"molecule": "COc1ccc2c(C)nc(Nc3nc(-c4ccccc4)cc(=O)[nH]3)nc2c1", "Potency": "active: 3.98 µM"}, {"molecule": "CCOc1ccc(CN2CCc3nc(Nc4ccc(OC)cc4OC)ncc3C2)cc1", "Potency": "inconclusive: 10 µM [inhibitor, partial curve]"}, {"molecule": "COC(C(=O)Nc1ccnn1C1CCN(Cc2ccc(Cl)s2)CC1)c1ccccc1", "note": "(configuration not stated)", "Potency": "inactive"}, {"molecule": "CC1CCC(NC(=O)CN(C)CC(=O)Nc2ccc(F)cc2)CC1", "note": "(configuration not stated)", "Potency": "inactive"}, {"molecule": "CC(C)(C)c1ccc(C(=O)NC(=S)NCC2CCCO2)cc1", "note": "(configuration not stated)", "Potency": "inactive"}, {"molecule": "CCOc1cccc(C(=O)NC(=S)NCc2cccnc2)c1", "Potency": "inconclusive: 17.8 µM [inhibitor, single point]"}, {"molecule": "Cc1ccc(-c2nc(C)c(CCNS(=O)(=O)c3ccc(F)c(C(F)(F)F)c3)s2)cc1", "Potency": "inconclusive: 35.5 µM [inhibitor, single point]"}, {"molecule": "COc1ccc(CNc2oc(-c3ccc(COc4ccccc4C)o3)nc2C#N)cc1", "Potency": "inactive"}, {"molecule": "O=C(O)c1ccc(C=NNC(=O)c2cccc3ccccc23)cc1", "Potency": "inactive"}, {"molecule": "O=C(CC1C(=O)NCCN1Cc1cccc(Oc2ccccc2)c1)NCCCn1cccn1", "note": "(configuration not stated)", "Potency": "inconclusive: 3.55 µM [inhibitor, full curve, poor fit]"}, {"molecule": "CC(=O)Cc1nsc(NC(=O)c2cccc(F)c2)n1", "Potency": "inactive"}, {"molecule": "C[C@@H]1CN([C@@H](C)CO)C(=O)CCCn2cc(nn2)CO[C@H]1CN(C)C(=O)c1ccc2ccn(C)c2c1", "Potency": "inactive"}, {"molecule": "CCN(Cc1ccccc1)C(=O)Cn1c(=O)n(-c2ccc(C)c(C)c2)c(=O)c2c(C)c(C)sc21", "Potency": "inconclusive: 35.5 µM [inhibitor, single point]"}, {"molecule": "CC(C)(C)NS(=O)(=O)c1cc(C(=O)Nc2sccc2C#N)ccc1Cl", "Potency": "inconclusive: 11.2 µM [inhibitor, partial curve, poor fit]"}, {"molecule": "CC(C)CCNC(=O)CN1N=C(c2ccc(Cl)cc2)CCC1=O", "Potency": "inconclusive: 35.5 µM [inhibitor, single point]"}, {"molecule": "CCOC(=O)CNC(=O)c1ccc2c(c1)OCCO2", "Potency": "inconclusive: 6.31 µM [inhibitor, single point]"}, {"molecule": "CC1CCN(c2ccccc2NC(=O)c2ccc(Br)o2)CC1", "Potency": "inconclusive: 25.1 µM [inhibitor, single point]"}]}]}
